# The supplement of paper PMC8728848
# This is one part of the list.
# B1: Siglec-7-SA-PE-180 (Homo sapiens), Q9Y286 (protein)
# chain: MLLLLLLPLLWGRERVEGQKSNRKDYSLTMQSSVTVQEGMCVHVRCSFSYPVDSQTDSDPVHGYWFRAGNDISWKAPVATNNPAWAVQEETRDRFHLLGDPQTKNCTLSIRDARMSDAGRYFFRMEKGNIKWNYKYDQLSVNVTALTHRPNILIPGTLESGCFQNLTCSVPWACEQGTPPMISWMGTSVSPLHPSTTRSSVLTLIPQPQHHGTSLTCQVTLPGAGVTTNRTIQLNVSYPPQNLTVTVFQGEGTASTALGNSSSLSVLEGQSLRLVCAVDSNPPARLSWTWRSLTLYPSQPSNPLVLELQVHLGDEGEFTCRAQNSLGSQHVSLNLSLQQEYTGKMRPVSGVLLGAVGGAGATALVFLSFCVIFIVVRSCRKKSARPAADVGDIGMKDANTIRGSASQGNLTESWADDNPRHHGLAAHSSGEEREIQYAPLSFHKGEPQDLSGQEATNNEYSEIKIPK
# Key:
# Assay in all cases: glycan array binding signal (z-score within array); higher = stronger binding
# Conditions in all cases: glycan notation: IUPAC condensed, linker removed
# [1] = molecular target: Fuc(a1-2)[GalNAc(a1-3)]Gal
# Summary of the method: (§1)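 Negative Z-scores can be read as non-binding. The Z-score is calculated within each array and then averaged across arrays of one protein sequence at different concentrations or buffers and across linkers. Arrays, 3228 in all, were curated from the Consortium for Functional Glycomics database and kept only where the protein sequence was available.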
# [2] = molecular target: Fuc(a1-2)[GalNAc(a1-3)]Gal(b1-3)GalNAc(a1-3)[Fuc(a1-2)]Gal(b1-4)GlcNAc
# Summary of the method: as §1
# [3] = molecular target: Fuc(a1-2)[GalNAc(a1-3)]Gal(b1-3)GalNAc(b1-3)Gal(a1-4)Gal(b1-4)Glc
# Summary of the method: as §1
# [4] = molecular target: Fuc(a1-2)[GalNAc(a1-3)]Gal(b1-3)GlcNAc
# Summary of the method: as §1
# [5] = molecular target: Fuc(a1-2)[GalNAc(a1-3)]Gal(b1-3)GlcNAc(b1-2)Man(a1-3)[Fuc(a1-2)[GalNAc(a1-3)]Gal(b1-3)GlcNAc(b1-2)Man(a1-6)]Man(b1-4)GlcNAc(b1-4)GlcNAc
# Summary of the method: as §1
# [6] = molecular target: Fuc(a1-2)[GalNAc(a1-3)]Gal(b1-3)GlcNAc(b1-2)Man(a1-3)[Fuc(a1-2)[GalNAc(a1-3)]Gal(b1-3)GlcNAc(b1-2)Man(a1-6)]Man(b1-4)GlcNAc(b1-4)[Fuc(a1-6)]GlcNAc
# Summary of the method: as §1
# [7] = molecular target: Fuc(a1-2)[GalNAc(a1-3)]Gal(b1-3)GlcNAc(b1-3)GalNAc
# Summary of the method: as §1
# [8] = molecular target: Fuc(a1-2)[GalNAc(a1-3)]Gal(b1-3)GlcNAc(b1-6)GalNAc
# Summary of the method: as §1
# [9] = molecular target: Fuc(a1-2)[GalNAc(a1-3)]Gal(b1-4)Glc
# Summary of the method: as §1
# [10] = molecular target: Fuc(a1-2)[GalNAc(a1-3)]Gal(b1-4)GlcNAc
# Summary of the method: as §1
# [11] = molecular target: Fuc(a1-2)[GalNAc(a1-3)]Gal(b1-4)GlcNAc(b1-2)Man
# Summary of the method: as §1
# [12] = molecular target: Fuc(a1-2)[GalNAc(a1-3)]Gal(b1-4)GlcNAc(b1-2)Man(a1-3)[Fuc(a1-2)[GalNAc(a1-3)]Gal(b1-4)GlcNAc(b1-2)Man(a1-6)]Man(b1-4)GlcNAc(b1-4)GlcNAc
# Summary of the method: as §1
# [13] = molecular target: Fuc(a1-2)[GalNAc(a1-3)]Gal(b1-4)GlcNAc(b1-2)Man(a1-3)[Fuc(a1-2)[GalNAc(a1-3)]Gal(b1-4)GlcNAc(b1-2)Man(a1-6)]Man(b1-4)GlcNAc(b1-4)[Fuc(a1-6)]GlcNAc
# Summary of the method: as §1
# [14] = molecular target: Fuc(a1-2)[GalNAc(a1-3)]Gal(b1-4)GlcNAc(b1-3)Gal(b1-4)GlcNAc
# Summary of the method: as §1
# [15] = molecular target: Fuc(a1-2)[GalNAc(a1-3)]Gal(b1-4)GlcNAc(b1-3)Gal(b1-4)GlcNAc(b1-3)Gal(b1-4)GlcNAc
# Summary of the method: as §1
# [16] = molecular target: Fuc(a1-2)[GalNAc(a1-3)]Gal(b1-4)GlcNAc(b1-3)GalNAc
# Summary of the method: as §1
# [17] = molecular target: Fuc(a1-2)[GalNAc(a1-3)]Gal(b1-4)GlcNAc(b1-3)[Fuc(a1-2)[GalNAc(a1-3)]Gal(b1-4)GlcNAc(b1-6)]GalNAc
# Summary of the method: as §1
# [18] = molecular target: Fuc(a1-2)[GalNAc(a1-3)]Gal(b1-4)GlcNAc(b1-6)GalNAc
# Summary of the method: as §1
# [19] = molecular target: Fuc(a1-2)[GalNAc(a1-3)]Gal(b1-4)[Fuc(a1-3)]GlcNAc
# Summary of the method: as §1
# [20] = molecular target: Fuc(a1-2)[GalNAc(a1-3)]Gal(b1-4)[Fuc(a1-3)]GlcNAc(b1-3)GalNAc
# Summary of the method: as §1
# [21] = molecular target: Fuc(a1-2)[GalNAc(a1-4)]Gal(b1-4)GlcNAc
# Summary of the method: as §1
# [22] = molecular target: Fuc(a1-2)[GalNAc(b1-3)]Gal
# Summary of the method: as §1
# Fuc(a1-3)GlcNAc = molecular target: Fuc(a1-3)GlcNAc
# Summary of the method: as §1
# [23] = molecular target: Fuc(a1-3)[Gal(b1-4)]Glc6S
# Summary of the method: as §1
# [24] = molecular target: Fuc(a1-3)[Gal(b1-4)]GlcNAc
# Summary of the method: as §1
# [25] = molecular target: Fuc(a1-3)[Gal(b1-4)]GlcNAc(b1-2)Man
# Summary of the method: as §1
# [26] = molecular target: Fuc(a1-3)[Gal(b1-4)]GlcNAc(b1-2)Man(a1-3)[Fuc(a1-3)[Gal(b1-4)]GlcNAc(b1-2)Man(a1-6)]Man(b1-4)GlcNAc(b1-4)GlcNAc
# Summary of the method: as §1
# [27] = molecular target: Fuc(a1-3)[Gal(b1-4)]GlcNAc(b1-2)Man(a1-3)[Fuc(a1-3)[Gal(b1-4)]GlcNAc(b1-2)Man(a1-6)]Man(b1-4)GlcNAc(b1-4)[Fuc(a1-6)]GlcNAc
# Summary of the method: as §1
# [28] = molecular target: Fuc(a1-3)[Gal(b1-4)]GlcNAc(b1-3)Gal(b1-3)[Fuc(a1-4)]GlcNAc
# Summary of the method: as §1
# [29] = molecular target: Fuc(a1-3)[Gal(b1-4)]GlcNAc(b1-3)Gal(b1-4)[Fuc(a1-3)]GlcNAc
# Summary of the method: as §1
# [30] = molecular target: Fuc(a1-3)[Gal(b1-4)]GlcNAc(b1-3)Gal(b1-4)[Fuc(a1-3)]GlcNAc(b1-3)Gal(b1-4)[Fuc(a1-3)]GlcNAc
# Summary of the method: as §1
# [31] = molecular target: Fuc(a1-3)[Gal(b1-4)]GlcNAc(b1-3)GalNAc
# Summary of the method: as §1
# [32] = molecular target: Fuc(a1-3)[Gal(b1-4)]GlcNAc(b1-4)Gal(b1-4)[Fuc(a1-3)]GlcNAc
# Summary of the method: as §1
# [33] = molecular target: Fuc(a1-3)[Gal(b1-4)]GlcNAc(b1-4)Gal(b1-4)[Fuc(a1-3)]GlcNAc(b1-4)Gal(b1-4)[Fuc(a1-3)]GlcNAc
# Summary of the method: as §1
# [34] = molecular target: Fuc(a1-3)[Gal(b1-4)]GlcNAc(b1-6)GalNAc
# Summary of the method: as §1
# [35] = molecular target: Fuc(a1-3)[Gal(b1-4)]GlcNAc(b1-6)[Gal(b1-3)GlcNAc(b1-3)]Gal(b1-4)Glc
# Summary of the method: as §1
# [36] = molecular target: Fuc(a1-3)[Gal(b1-4)]GlcNAc(b1-6)[Neu5Ac(a2-3)Gal(b1-3)]GalNAc
# Summary of the method: as §1
binder,measurement,setting,value
B1,glycan array binding signal (z-score),[1],-0.204
same,glycan array binding signal (z-score),[2],-0.433
same,glycan array binding signal (z-score),[3],-0.597
same,glycan array binding signal (z-score),[4],-0.313
same,glycan array binding signal (z-score),[5],-0.212
same,glycan array binding signal (z-score),[6],-0.305
same,glycan array binding signal (z-score),[7],-0.057
same,glycan array binding signal (z-score),[8],-0.099
same,glycan array binding signal (z-score),[9],-0.52
same,glycan array binding signal (z-score),[10],-0.265
same,glycan array binding signal (z-score),[11],-0.374
same,glycan array binding signal (z-score),[12],-0.267
same,glycan array binding signal (z-score),[13],-0.301
same,glycan array binding signal (z-score),[14],0.132
same,glycan array binding signal (z-score),[15],-0.288
same,glycan array binding signal (z-score),[16],-0.233
same,glycan array binding signal (z-score),[17],-0.555
same,glycan array binding signal (z-score),[18],-0.164
same,glycan array binding signal (z-score),[19],-0.148
same,glycan array binding signal (z-score),[20],10.7
same,glycan array binding signal (z-score),[21],-0.276
same,glycan array binding signal (z-score),[22],-0.267
same,glycan array binding signal (z-score),Fuc(a1-3)GlcNAc,-0.212
same,glycan array binding signal (z-score),[23],-0.097
same,glycan array binding signal (z-score),[24],0.023
same,glycan array binding signal (z-score),[25],-0.036
same,glycan array binding signal (z-score),[26],-0.013
same,glycan array binding signal (z-score),[27],-0.036
same,glycan array binding signal (z-score),[28],-0.326
same,glycan array binding signal (z-score),[29],-0.205
same,glycan array binding signal (z-score),[30],-0.524
same,glycan array binding signal (z-score),[31],0.299
same,glycan array binding signal (z-score),[32],-0.456
same,glycan array binding signal (z-score),[33],-0.484
same,glycan array binding signal (z-score),[34],-0.159
same,glycan array binding signal (z-score),[35],-0.172
same,glycan array binding signal (z-score),[36],0.032
